± gives the standard deviation of the averaged measurements. The list shows a part of the results.
What follows are sequences tested on PfAP2-I AP2 domain 3 (GST-tagged) (assay: gcPBM binding intensity (ln(normalized median fluorescence intensity)); higher = stronger DNA binding).
In short: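 DNA-binding domains from P. falciparum, fused to GST and produced in E. coli, were put on an Agilent 4 × 180k double-stranded probe array for 1 h in 1× PBS holding 1% milk, 0.2 mg/ml BSA, 0.5% salmon testes DNA and 0.03% Triton X-100. Probes were primer-extended, 36 bp long and drawn from intergenic genomic regions, with negative controls included. After Alexa488 anti-GST antibody detection and a 488 nm scan, binding intensity was set as the highest Masliner-normalised natural-log median intensity across replicate spots of either probe orientation.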

Sequence | gcPBM binding intensity (ln)
TCATTCTAAATATAAACACACATAAATATATACATT [CACACA_site3354] | 7.53 ± 0.6
AATATATAATTTTTAACACACAAAAAAAAAAAAAAT [CACACA_site3581] | 7.76 ± 0.35
AAAAAAAAAAAAAAAACACACACATATAATATATTT [CACACA_site8369] | 8.49 ± 0.47
ATTGCGTGATAATAATGTACAAAAAGTAATTTATAT [XGTACX_site8339] | 7.77 ± 0.52
GGTACGTATTTCAATGCATGTCCATGTACATATAAA [TGCATGCA_site208] | 8.17 ± 0.52
CTATAATGTTTCTTTCAACACACAAAAAATGAACAC [CACACA_site8438] | 8.33 ± 0.38
CATACGTTCTAATATATACACACCTGGTATTAATTA [CACACA_site2221] | 7.78 ± 0.59
ATAAATATGTTCTGCACACAAATAAGTGTTTGAAGT [CACACA_site3892] | 8.49 ± 0.47
GAATTTCAACAAAGTAGTACATTTTATAGTAATTGG [XGTACX_site2319] | 7.75 ± 0.47
TAATGGAATAAAAATTGTACATATTTTTTTTTTTTT [XGTACX_site7669] | 7.79 ± 0.54
ACATACATACATACATACATACATACATACATACAT [XGTACX_negctrl_site315] | 8.96 ± 0.38
TATAATATATCTGTAACACACAAAAGTTATATACTT [CACACA_site5578] | 7.62 ± 0.47
TTTTTTTCTCTCTCTACACACAAGGTTTAATTTAAA [CACACA_site1690] | 8.05 ± 0.47
AACTCACGAGGACACACACACATATATATATATATA [CACACA_site4711] | 9.46 ± 0.24
ATATTTATAATATAGAGTACTTACTAAGTTATGGGT [XGTACX_site5405] | 8.07 ± 0.47
AATGTGTAGGTAAGATAATTTTTGTTTTTTTATTTG [CACACA_negctrl_site424] | 7.29 ± 0.83
TTAAACTTGAAACACACACACACACCCATATAAAAA [CACACA_site758] | 8.12 ± 0.29
TGTAGTCTGGAGAAACGTACATAGTATCTGGTAGCT [XGTACX_site2538] | 7.79 ± 0.87
AAATTTTCTTAAGGTTGTACTTTTTGAAAATAATCT [XGTACX_site4894] | 7.67 ± 0.38
TTTTTATATATATGTATAAATATTTTTTCTATTTAT [XGTACX_negctrl_site606] | 7.42 ± 0.49
TAAATACAGACATACACACATACACCCACATATATA [CACACA_site547] | 8.105 ± 0.078
ATTAAAATGGAGTATTAATATGATATATATATATAT [GTGCAC_negctrl_site509] | 9.42 ± 0.45

Sequence | gcPBM binding intensity (ln)
AGGAACATTTACGCCCCACACACCTACCAACAAAAA [CACACA_site3827] | 8.6 ± 0.18
TATATATATATTTTTGGTACAGATATTTTCTTCTCT [XGTACX_site4432] | 9.06 ± 0.042
TTACAACCATAAAATGCATGTAAATGACAAAAAAAA [TGCATGCA_site944] | 7.93 ± 0.79
AATATATATATATATTGTACACACATTTATGCATAT [XGTACX_site6856] | 8.12 ± 0.34
TAAAATTAAATGAAATCATTATTCATTTTTATTTTA [CACACA_negctrl_site1281] | 6.88 ± 0.45
ATTCTTTTTTTTTTCTTATATTCTAATCACCACCTT [XGTACX_negctrl_site179] | 8.46 ± 0.3
CATATAAATAAACACACACACACATATATATATATA [CACACA_site5309] | 9.29 ± 0.39
AATAGGTGCCTTTTTTCACACACATGTCAACTAAAT [CACACA_site8846] | 9.05 ± 0.085
TTTGGTAAGCGTGTCGCATGTAGAACAAGTCTACAT [TGCATGCA_site577] | 7.39 ± 0.89
ATGAAATTATTATATAAACACACATTTATTTTATTT [CACACA_site8597] | 7.59 ± 0.49
TTACAAAAAGGTAATTTACACACTGCATATAGGAAT [CACACA_site8956] | 8.36 ± 0.69
TCTTAATATGGTAATACACACTAATATACTTTTGTT [CACACA_site4969] | 7.93 ± 0.53
ACCCTTCAATTTAATTGTACAAGAAAAAAAAAAAAA [XGTACX_site2927] | 8.11 ± 0.55
AAATAATCATAAAATAAACACACATATATAAATATA [CACACA_site7981] | 7.47 ± 0.43
TGCTCAAACTTTACAAATGAACGAATATAAAAAAAG [CACACA_negctrl_site541] | 7.92 ± 0.7
ACATAATATACTATTGTGCACATATATATATATATA [GTGCAC_site9761] | 10.88 ± 0.085
GTTAATTTAATTATATGTACGAAAAAATACGTTATA [XGTACX_site1306] | 7.84 ± 0.11
TTTTTATTTTTTTATTTCTTATCAAATAAAATATAT [XGTACX_negctrl_site537] | 7.54 ± 0.66
AATATTTTGTTATTTATTTAATCTAATATTACTATC [CACACA_negctrl_site4] | 7.5 ± 0.74
ATATATATATAAATATGTACATATATACATATATAC [XGTACX_site2374] | 8.84 ± 0.28
TAGGAAAATTACAAAAGTACTTGGCACATAATAATG [XGTACX_site6005] | 8.27 ± 0.26
AAAAAAAAAAAATACACACAAACACAAATTAAATAA [CACACA_site3809] | 7.72 ± 0.38

Sequence | gcPBM binding intensity (ln)
ATTATAGAATATTGAAGTACAAAATTTAAAATAAGT [XGTACX_site1468] | 7.96 ± 0.59
TAGATATTTTTGAAAAGTACAAATTTTTAAAAATTA [XGTACX_site4420] | 7.5 ± 0.33
TTATATAATGACAAAAAAAAAAAAAAAAAAAAAAAA [CACACA_negctrl_site1467] | 8.21 ± 0.68
GTATGATTACAAGAAAGTAGTCCACTTTAACAACAA [CACACA_negctrl_site1304] | 8.06 ± 0.51
TAATTTATCCTATAATGTACTTATAAAATATATCAT [XGTACX_site1460] | 7.7 ± 0.32
AGTCCATTTTATTATTGTACATATTAATTTATATCA [XGTACX_site672] | 8.42 ± 0.51
ATTCAGAGTATATAAAAATTAATATATACATAATAT [CACACA_negctrl_site1782] | 7.41 ± 0.49
ATGTACATAAACCGCACACATATAAAAAAATAAATA [CACACA_site5571] | 8.4 ± 0.057
ATCAAATTATAATCATGTACAAATAAAAAAAAAAAA [XGTACX_site313] | 7.91 ± 0.71
AGAAAAAAAAAAAAAAAACACACGGTACATCCAAAG [CACACA_site124] | 7.79 ± 0.7
AAATATCTACAAATATGTACATATTTTTTTTGGCTT [XGTACX_site6301] | 7.96 ± 0.43
TATTTTGTCATAGAACGTACTTATAAATATTTTTTT [XGTACX_site8424] | 7.76 ± 0.45
ATAGAAGCTGTTGACGAAGAAAAAAAAAAAAAAAAA [CACACA_negctrl_site110] | 8.09 ± 0.51
ATCATATCCACCAAATGAATAATATAAAATAATATA [XGTACX_negctrl_site193] | 8.12 ± 0.71
AAATAACATAATAAGGGTACATTAATTTCGATAATG [XGTACX_site835] | 7.72 ± 0.53
TATATATATATATATGCACACATTTATACAATTTTA [CACACA_site2986] | 9.96 ± 0.38
TTTCTTTTTAAATAATAATGTATAATAAAAAGTTCA [TGCATGCA_negctrl_site195] | 7.42 ± 0.5
TTTGTTTGATATATGTGTACATATATATATTATGCT [XGTACX_site3522] | 7.85 ± 0.27
AAGTACAATTCATGTATGCACTTTATTATATTTTAT | 8.85 ± 0.085
TATAATATGTATATCTGTACATATTTTAAATCTAAT [XGTACX_site2426] | 7.5 ± 0.24
AAGATAAAATAATAAAGTACACATATAAATTGAAAA [XGTACX_site2113] | 8.26 ± 0.071
GTAATACCCAAACACACACACATACCCATATATATA [CACACA_site5510] | 8.34 ± 0.77

Sequence | gcPBM binding intensity (ln)
AGAAAGTAAAGCTGTTGTACTATTATATATATTTTA [XGTACX_site8090] | 7.65 ± 0.59
ATAGTTTTTCCAATTCAAAAAAAAAAAAAAAAAAAA [CACACA_negctrl_site969] | 8.12 ± 0.83
TAAAAATATTATAATGCATGCAAAATATTGTTATAA [TGCATGCA_site244] | 8.2 ± 0.77
AAAGTATAAATAAATACACACATATTTATTTATATA [CACACA_site7375] | 7.54 ± 0.46
GAGAGGATCATCAATTCACACACATAAAAATGAAGT [CACACA_site9010] | 7.59 ± 0.67
AACATATGATTAAACTGTACAAGAAAAATATAACAT [XGTACX_site4477] | 8.2 ± 0.59
TATATATAAGATTGATGTACGATTTTGGTGTCTTAT [XGTACX_site2611] | 8.19 ± 0.37
TGTTATGAGAACAGCACACAAGCTACATCATATATA [CACACA_site870] | 7.7 ± 0.53
TATTATAGTATATATTGTACATATATATATTTTTTA [XGTACX_site8831] | 7.59 ± 0.41
ATAATAATATATAGTACACACAAAAATGGAAGTAAA [CACACA_site3318] | 8.13 ± 0.56
CTTTCTATATAAAATCGTACATATATAATATTATAT [XGTACX_site5807] | 7.84 ± 0.44
TAAATGTCTGTTAATGCACACGATATGTCTATATAT [CACACA_site2352] | 10.7 ± 0.54
TATATTAAGAAACACACACACATATATATATATATA [CACACA_site1609] | 9.38 ± 0.63
GAAATTATAAATTGGACACACACATAAAAAATATGT [CACACA_site7957] | 7.79 ± 0.59
TTCCTATTTCCTATGTGTACTTATAAATAAGTGTCT [XGTACX_site3725] | 8.11 ± 0.57
TCCGCATGTACATGGGTGCACATAACACCCATTTAA [GTGCAC_site9881] | 10.4 ± 0.44
TTATACCTGATTTAGGTGCTATAAATTTGTGTTTTT | 9.78 ± 0.38
ATATATATATATATGTGTACTTATATATTTAAAAAA [XGTACX_site1761] | 9.24 ± 0.33
ATATATATATATATATATATTTATATGTGAAAACCC [CACACA_negctrl_site845] | 9.37 ± 0.45
GTAATTTTATATGGTTGTACATATATATATATATAT [XGTACX_site6659] | 9.41 ± 0.45
CAACAACAAAAAAAAAAATAATAATAATAAAAAATA [TGCATGCA_negctrl_site271] | 7.5 ± 0.35
CGCATAAAGACAAGAACACACATATATATTGTAGTA [CACACA_site5938] | 7.5 ± 0.27

From the supplement of paper PMC11417369
